Reference: PubChem BioAssay AID2147 (National Center for Advancing Translational Sciences (NCATS), 2009)
Out of some 230,000 compounds screened, about 3,600 (1.6%) were called active. The shares of active, inactive and inconclusive entries below differ from those in the screen. Calls come from the whole dose curve; as a rule, active = well fitted inhibition curve with a large enough effect (not every such curve was filed as active); inconclusive = small, poorly fitted or top-dose-only effect, or another doubt; inactive = no such curve, though single readings can be large or run the other way. A potency beside an inconclusive call is a rough fit, not a confirmed value.

Biological target: Lysine-specific demethylase 4E (Homo sapiens) (UniProt B2RXH2)
Test: qHTS Assay for Inhibitors of Human Jumonji Domain Containing 2E (JMJD2E)
Conditions: JMJD2E catalytic domain, FDH-coupled NADH fluorescence (FDH is formaldehyde dehydrogenase); series mostly up to 57.1 µM; activity change, negative = inhibition: at the top concentration
Note: nearly all actives have a fitted effect of over 50% in size.
Potency is the fitted concentration of half-maximal effect; tags give direction and shape of the fitted curve.
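Throughout, for activity change, negative = inhibition: 0% = wells with enzyme and -100% = buffer wells without enzyme.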

Sequence of UniProt B2RXH2 (B2RXH2 whole entry, looked up, the tested form may be a part): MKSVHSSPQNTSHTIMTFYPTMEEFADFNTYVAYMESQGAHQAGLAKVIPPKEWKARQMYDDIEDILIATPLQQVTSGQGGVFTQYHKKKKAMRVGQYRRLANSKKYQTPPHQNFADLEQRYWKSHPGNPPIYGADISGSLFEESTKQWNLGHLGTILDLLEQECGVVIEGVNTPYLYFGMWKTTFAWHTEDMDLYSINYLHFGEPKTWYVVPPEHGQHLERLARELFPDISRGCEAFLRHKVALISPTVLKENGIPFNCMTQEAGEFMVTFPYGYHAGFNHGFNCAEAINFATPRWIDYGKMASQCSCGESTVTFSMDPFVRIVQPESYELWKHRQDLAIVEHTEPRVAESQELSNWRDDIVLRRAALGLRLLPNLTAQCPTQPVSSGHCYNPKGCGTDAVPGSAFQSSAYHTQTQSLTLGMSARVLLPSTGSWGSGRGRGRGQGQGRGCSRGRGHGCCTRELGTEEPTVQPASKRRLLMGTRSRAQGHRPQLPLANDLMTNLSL

SMILES | Potency | activity change, negative = inhibition
O=C(COc1ncnc2scc(-c3ccc(F)cc3)c12)NCc1ccco1 | inconclusive: 35.5 µM [inhibitor, single point] | –
CCCCCC(=O)N1CCCCC1 | – | inactive: -14.9%
Cc1ccc2cc(C=O)c(N(C)C)nc2c1 | inconclusive: 35.5 µM [inhibitor, single point] | –
CC1=CC(C)(C)n2c(O)c(N=N)c3c(C)ccc1c32 | – | inactive: -0.848%
CCNC(=O)c1ccc(C2SCC(=O)N2Cc2ccco2)cc1 (stereo unspecified) | – | inactive: 0.476%
CCOC(=O)C1CCN(c2ncnc3c2[nH]c2cccc(OC)c23)CC1 | inconclusive: 28.2 µM [inhibitor, partial curve] | –
COc1ccc(NS(=O)(=O)c2ccc(S(=O)(=O)N3CCCC3)cc2)cc1 | – | inactive: 6.78%
CC(=O)c1ccc2c(c1)OCCOCCOc1ccccc1OCCOCCO2 | inconclusive: 35.5 µM [inhibitor, single point] | –
CN1CCN(CC(O)COc2ccc(C34CC5CC(CC(C5)C3)C4)cc2)CC1 (stereo unspecified) | – | inactive: 8.03%
NC(=O)C[n+]1cccc2ccccc21 | inconclusive: 35.5 µM [inhibitor, partial curve] | –
NC[C@@H]1O[C@@H](O[C@H]2[C@H](O)[C@H](O[C@@H]3O[C@H](CO)[C@@H](O)[C@H](N)[C@@H]3O)[C@@H](N)C[C@H]2N)[C@H](N)C[C@@H]1O | – | inactive: 4.61% [at 25.5 µM]
Oc1c(CN2CCOCC2)cc(COCc2ccccc2)c2cccnc12 | active: 25.1 µM | –
CCOC(=O)c1ccc(COC(=O)CCc2nc3ccccc3[nH]c2=O)o1 | inconclusive: 31.6 µM [inhibitor, partial curve] | –
CCOCC(=O)Nc1cc(C(=O)Nc2cc(C)cc(C)c2)ccc1Cl | inconclusive: 39.8 µM [inhibitor, single point] | –
O=C(COC(=O)c1cc(=O)[nH]c2ccccc12)c1ccc(Br)cc1 | inconclusive: 28.2 µM [inhibitor, partial curve] | –
CN(C)/C=C/C(=O)c1ccc(Br)cc1 | – | inactive: -1.42%
COC1=CC(=O)C=C(OC)C1=O | inconclusive: 17.8 µM [inhibitor, partial curve, poor fit] | –
COc1cccc(CNC(=O)Cc2c(C(=O)O)[nH]c3ccccc23)c1 | inconclusive: 35.5 µM [inhibitor, single point] | –
Cc1cc(C)c2nc(-c3ccccn3)cc(C(=O)Nc3ccc(S(=O)(=O)Nc4cc(C)on4)cc3)c2c1 | inconclusive: 35.5 µM [inhibitor, single point] | –
CC(=O)Nc1cccc(OCCCNS(=O)(=O)c2ccc(F)cc2)c1 | – | inactive: -7.78%
CCOC(=O)CSc1nc(C)cc(=O)[nH]1 | – | inactive: -3.55%
CCN1CCN(Cc2ccc(NC(=O)c3ccc(C)c(NC(=O)c4c[nH]c5cc(C(F)(F)F)ccc5c4=O)c3)cc2C(F)(F)F)CC1 | – | inactive: 12.3%
Cc1ccc(NC(=O)CN2C(=O)S/C(=C/c3ccc(-c4cccc(C(=O)O)c4)o3)C2=O)cc1 | – | inactive: -27.4%

SMILES | Potency | activity change, negative = inhibition
CCOC(=O)Cn1c(C)cc(COC)c(C#N)c1=O | inconclusive: 28.2 µM [inhibitor, partial curve] | –
Cc1cc2cc(C(c3nnnn3Cc3ccco3)N3CCc4ccccc4C3)c(=O)[nH]c2cc1C (stereo unspecified) | inconclusive: 17.8 µM [inhibitor, partial curve] | –
COc1ccc(-c2nc(N)n(C(=O)c3cccs3)n2)cc1 | inconclusive: 25.1 µM [inhibitor, single point] | –
COc1ccc(CCn2c(-c3ccco3)nc3nc4ccccc4nc32)cc1 | inconclusive: 3.55 µM [inhibitor, full curve] | –
CCOc1cc(-c2cc(-c3ccc(C)cc3)nc(N)c2C#N)ccc1O | – | inactive: 3.47%
COc1cc(C2C(C#N)=C(N)N(c3ccc(F)cc3)C3=C2S(=O)(=O)CC3)ccc1O (stereo unspecified) | inconclusive: 35.5 µM [inhibitor, single point] | –
COc1ccc(-c2nn3c(-c4ccccc4)nnc3s2)cc1OC | inconclusive: 28.2 µM [inhibitor, single point] | –
Cc1ccc2nc(-c3ccccn3)c(Nc3ccccc3C)n2c1 | – | inactive: -0.526%
Cc1ccc(NC(=O)CSc2ccccc2NC(=O)c2ccccc2)cc1Cl | inconclusive: 39.8 µM [inhibitor, single point] | –
CCOc1cc(N2CCOCC2)c(OCC)cc1NC(=O)CN1CCc2ccccc2C1 | inconclusive: 39.8 µM [inhibitor, single point] | –
CC(C)c1ccc2oc(-c3cc(N)ccc3O)nc2c1 | inconclusive: 39.8 µM [inhibitor, single point] | –
CCOC(=O)c1sc(NC(=O)/C=C/c2cnn(C)c2C)c(C(=O)OCC)c1C | inconclusive: 8.91 µM [inhibitor, single point] | –
O=C(COC(=O)c1cccc(Cl)c1Cl)NCCN1C(=O)CSC1=O | – | inactive: -5.12%
O=C(Nc1cccc(-c2cn3cccnc3n2)c1)c1ccc2c(c1)OCO2 | inconclusive: 35.5 µM [inhibitor, partial curve] | –
COc1cccc(Cl)c1NC(=O)N1CCN(c2ccnc3cc(Cl)ccc23)CC1 | inconclusive: 35.5 µM [inhibitor, single point] | –
CCC(CO)NCC(O)COCc1ccc2c(c1)OCO2 (stereo unspecified) | inconclusive: 22.4 µM [inhibitor, single point] | –
CCc1nc2sc3c(O)cc(=O)[nH]c3c2cc1C | inconclusive: 35.5 µM [inhibitor, single point] | –
CCCN(Cc1cc2ccc(C)cc2[nH]c1=O)C(=O)c1cccnc1 | inconclusive: 25.1 µM [inhibitor, partial curve] | –
CC(N1CCOC1=O)S(=O)(=O)c1ccccc1 (stereo unspecified) | inconclusive: 25.1 µM [inhibitor, single point] | –
Cc1cccc(C)c1NC(=O)COc1ccc2c(C)c(Cc3ccccc3)c(=O)oc2c1 | inconclusive: 28.2 µM [inhibitor, partial curve] | –
CC(C)Sc1nc2ccccc2[nH]1 | – | inactive: 7.25%
FC(F)(F)c1cccc(NC(=S)NNC(=S)Nc2ccc(Cl)cc2)c1 | inconclusive: 39.8 µM [inhibitor, single point] | –
C/C(=N\Nc1ccc(C(F)(F)F)cn1)c1ccc(S(=O)(=O)NCc2ccco2)cc1 | inconclusive: 39.8 µM [inhibitor, single point] | –
